Measurements from PubChem BioAssay AID1347120 (National Center for Advancing Translational Sciences (NCATS), 2019).
Several values for one entry are separate records, joined by “and”; a condition that tells them apart may be missing. Identical values can stand only once. About 930 (0.24%) of roughly 390,000 compounds were called active. Inconclusive means that the source gave no clear call. Such entries were picked first, then a sample of the others. Calls come from the whole dose curve; as a rule, active = well fitted activation curve with a large enough effect; inconclusive = small, poorly fitted or top-dose-only effect; inactive = no such curve, though single readings can be large or run the other way. Potencies beside an inconclusive call are fits to weak or partial responses and may not hold up.

assay: qHTS for Suppressors of FUS Proteinopathy: Primary screen using FUS-linked yeast assay; note: nearly all actives have a fitted effect of over 55% in size;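 for growth rescue (activation): plate controls were DMSO vehicle for no effect and reference control for full effect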; conditions: S. cerevisiae FUS-expressing, OD600, 24 h; Potency: growth rescue; growth rescue (activation): at 76.6 µM (top of the series)
Outline: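 Read-out: OD at 600 nm after 24hr at 30C, reporting rescue of FUS-induced yeast toxicity. Cells at OD 0.005 in galactose (2%) minimal medium; compounds tested in a dilution series; CP55940 titration from 92uM final as control.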
Potency is the fitted concentration of half-maximal effect; tags give direction and shape of the fitted curve.

SMILES	Potency	growth rescue (activation)
CCOC(=O)C1=C(CSc2nc3c(cc2C#N)CCC3)OC(N)=C(C#N)C1c1ccccc1 (configuration not stated)	inconclusive: 31.6 µM [activator, single point]	–
CCc1cc(-c2nnn(-c3cc(C(C)C)ccc3C)c2CC)ccc1-c1cn(CCc2c[nH]c3ccccc23)nn1	inconclusive: 50.1 µM [activator, single point]	–
CCc1ccc(NC(=O)CN2C(=O)C3(SCC(=O)N3c3ccccc3)c3ccccc32)cc1 (configuration not stated)	inactive	–
O=C(COC(=O)c1nc(Cl)ccc1Cl)Nc1ccc(Cl)cc1	inactive	–
Cc1[nH]n(-c2ccc(Cl)cc2)c(=O)c1C=Nc1ccc(S(=O)(=O)N2CCOCC2)cc1	inconclusive: 7.94 µM [activator, partial curve]	–
CC(=O)N1CCN(c2ccccc2NC(=O)c2cccc3c(Cl)cccc23)CC1	inconclusive: 31.6 µM [activator, single point]	–
CCCCOc1ccc(C(=O)NCC2(c3ccccc3)CCOCC2)cc1	inconclusive: 6.31 µM [activator, partial curve, poor fit]	–
Cc1cccc(S(=O)(=O)c2cn(Cc3ccccc3)c3cc(N4CCC(C)CC4)c(F)cc3c2=O)c1	inconclusive: 3.98 µM [activator, full curve]	–
CC1(Cc2cc(Cl)ccc2C(F)(F)F)C(=O)Nc2ccc(S(=O)(=O)NC3CCCCC3)cc21 (configuration not stated)	inconclusive: 28.2 µM [activator, single point]	–
Cc1cc(-c2nc3ncccc3o2)ccc1NC(=O)c1ccc([N+](=O)[O-])o1	inconclusive: 44.7 µM [activator, single point]	–
CCC(C)C(=O)Nc1nc(C)c(-c2csc(Nc3ccccc3OC)n2)s1 (configuration not stated)	inconclusive: 28.2 µM [activator, single point]	–
CC(C)(C)OC(=O)CC[C@@H](C(=O)N1CCN(C(=O)OC(C)(C)C)CC1)n1cc(C(Cc2ccc(O)cc2)NC(=O)OC(C)(C)C)nn1 (some centres not stated)	inconclusive: 15.8 µM [activator, partial curve, poor fit]	–
COC(=O)c1cc(-c2cccc3ccccc23)c(=O)n2c1CCC2	inactive	–
CC(=O)NC(c1ccc(F)c(F)c1)c1nc(-c2cccc(C(C)C)c2)cs1 (configuration not stated)	inconclusive: 28.2 µM [activator, single point]	–
Cc1ccc(-c2csc(NC(=O)CSC3=NCCS3)n2)cc1	inactive	–
COc1ccc(CN2C(=O)C(CC(=O)NCCCCc3ccccc3)CC(C(=O)N3CCCCCC3)=C2C)cc1 (configuration not stated)	inconclusive: 27.3 µM [activator, partial curve]	–
COc1ccc(NC(=O)NCc2cccn2C)c(OC)c1	active: 28.2 µM	–
NC(=S)N/N=C1/CCSc2ccc3ccccc3c21	inactive	–
Cc1ccc(C2(C)NC(=O)N(CC(=O)NCc3ccccc3Cl)C2=O)cc1 (configuration not stated)	inactive	–
CCOc1ccc(N2C(=O)/C(=C\c3ccccc3OC)S(=O)(=O)C2c2cccc([N+](=O)[O-])c2)cc1 (configuration not stated)	inactive	–
N#C/C(=C\c1ccccc1)C(=O)Nc1nncs1	inconclusive: 50.1 µM [activator, single point]	–

SMILES	Potency	growth rescue (activation)
CC1(C(=O)NS(=O)(=O)c2ccc3ccccc3c2)CCN1C(=O)Cc1ccc(-c2ccccc2)cc1 (configuration not stated)	inconclusive: 15.8 µM [activator, partial curve, poor fit]	–
CCOC(=O)c1ccc(NC(=O)c2nc[nH]c2C(=O)N[C@@H](CC(C)C)C(=O)OC(C)(C)C)cc1	inconclusive: 3.16 µM [activator, full curve]	–
O=C1CCCC2=C1C(c1ccccc1)NC(=S)N2 (configuration not stated)	inconclusive: 50.1 µM [activator, single point]	–
CCc1ccc(C(O)c2ncc(-c3ccccc3OC)[nH]2)cc1 (configuration not stated)	inactive	–
C=CCSc1nnc(NC(=O)C2CC(=O)N(c3ccc4c(c3)OCCO4)C2)s1 (configuration not stated)	inconclusive: 28.2 µM [activator, partial curve, poor fit]	–
COC(=O)[C@]12C[C@H](CC(=O)NCc3cccc(C(F)(F)F)c3)C(=O)N(CCc3ccc(OC)c(OC)c3)C1=C[C@H](C(C)C)O[C@@H]2C1CC1	inconclusive: 7.94 µM [activator, partial curve, poor fit]	–
Cc1ccc(Cn2c(C(C)Nc3nc(-c4ccc(Cl)cc4)cs3)nc3cc(C(=O)NCCCO)ccc32)cc1 (configuration not stated)	inconclusive: 44.7 µM [activator, single point]	–
COc1cccc(NC(=O)c2sc(-n3nc(C)c(Cc4ccccc4Cl)c3C)nc2C)c1	inactive	–
Cc1ccc(/C(O)=C2\C(=O)C(=O)N(CC(C)O)C2c2cccc(F)c2)cc1 (configuration not stated)	inactive	–
COc1ccccc1-c1cc(C(F)(F)F)nc(N2CCOCC2)n1	inactive	–
O=C(NC1CCCC1)C(c1ccccc1)n1c(-c2cccc3ccccc23)nc2ccccc21 (configuration not stated)	inconclusive: 11.2 µM [activator, partial curve, poor fit]	–
O=C(CSc1nc(=O)n(Cc2ccncc2)c2c1CCC2)Nc1ccccc1	inactive	–
NS(=O)(=O)c1ccc(CCNC(=O)COC(=O)c2nc(Cl)ccc2Cl)cc1	inconclusive: 44.7 µM [activator, single point]	–
Cc1ccc(-n2ncc3c(N4CCN(c5ccc(F)cc5)CC4)ncnc32)c(C)c1	–	inconclusive: 76.1% [activator]
COc1ccc2nc(N/C(N)=N/C(=S)Nc3ccccc3)nc(C)c2c1	inconclusive: 44.7 µM [activator, single point]	–
COc1ccc(C2CC(c3ccc(OC)c(OC)c3)=NN2C(=O)c2ccccc2)cc1 (configuration not stated)	inconclusive: 20 µM [activator, single point]	–
Cn1ccc2cc(S(=O)(=O)N3CCN(C(=O)Nc4cccc(F)c4)CC3)ccc21	inconclusive: 28.2 µM [activator, partial curve, poor fit]	–
CN(C)c1ccc(/C=C/C(=O)c2cccnc2)cc1	inactive	–
CC1C(=O)N(Cc2cn(Cc3ccco3)nn2)CCS(=O)(=O)N1Cc1ccc(-c2ccc(F)cc2Cl)cc1 (configuration not stated)	inconclusive: 11.2 µM [activator, partial curve]	–
Cc1ccnc(Nc2nc(-c3sc(C)nc3C)cs2)c1	inactive	–
CC(C)(Oc1ccc(Cl)cc1)C(=O)Nc1ccc(-c2nc3ncccc3o2)cc1	inactive	–

SMILES	Potency	growth rescue (activation)
O=C(CC1SC(=NCCc2ccccc2)N(/N=C/c2cccs2)C1=O)Nc1ccc(Cl)cc1 (configuration not stated)	inconclusive: 12.6 µM [activator, partial curve, poor fit]	–
CCOC(=O)c1c(NC(=O)CSc2cn(CCNC(=O)c3ccc(OC)cc3)c3ccccc23)sc2c1CCC2	inconclusive: 28.2 µM [activator, single point]	–
CCCCOC(=O)c1ccc(NC(=O)C2(c3cccs3)CCOCC2)cc1	inconclusive: 17.8 µM [activator, partial curve, poor fit]	–
CCOc1ccc(S(=O)(=O)Nc2ccc(S(=O)(=O)N3CCCCC3)cc2)cc1	inconclusive: 50.1 µM [activator, single point]	–
Cc1ccc2nc(SCC(=O)Nc3nnc(SCC(N)=O)s3)[nH]c2c1	inconclusive: 7.08 µM [activator, partial curve, poor fit]	–
Cc1cc(Nc2ncc(Cl)cc2Cl)n(-c2ccccc2)n1	inactive	–
COc1ccc(-c2cn3nc(N4CCCC(C(=O)Nc5ccccc5F)C4)sc3n2)cc1 (configuration not stated)	inactive	–
Cc1ccc(CNC(=O)c2ccc3oc(=O)n(Cc4ccccc4)c3c2)cc1	inactive	–
Cc1[nH]n(-c2cccc(Cl)c2)c(=O)c1/C=N/n1c(C)nc2ccccc2c1=O	inconclusive: 44.7 µM [activator, partial curve, poor fit]	–
COc1ccc(-c2cc([C@H]3[C@H]4C=CC[C@@H](C)[C@@H]4C(=O)N3Cc3ccccc3)ccc2F)cc1OC	inconclusive: 25.1 µM [activator, partial curve]	–
COC(=O)c1ccccc1NC(=O)Cn1nc(C)c2nn(-c3ccc(Cl)cc3)c(C)c2c1=O	inactive	–
CCCn1c2ccccc2c2cnn(CC(=O)Nc3ccccc3OC)c(=O)c21	inconclusive: 35.5 µM [activator, single point]	–
CC1CCc2nc3ccc(S(=O)(=O)N4CCC(C(=O)NCc5ccccc5Cl)CC4)cc3c(C(=O)O)c2C1 (configuration not stated)	inconclusive: 31.6 µM [activator, single point] and inconclusive: 25.1 µM [activator, partial curve]	–
COc1ccc(Cc2cc(NCc3ccccc3)c3ncn(C(C)C)c3c2)cc1	inconclusive: 31.6 µM [activator, single point]	–
Cc1ccc2c(CC(=O)Nc3ccc(S(=O)(=O)N4CCC(C)CC4)cc3)coc2c1	inconclusive: 35.5 µM [activator, single point]	–
CCOc1ccc(NC(=O)CSc2nnc3c(C)cc4ccccc4n23)cc1	inactive	–
CCCCSCCCNC(=O)c1cn(CC)c2ccc(S(=O)(=O)N3CCOCC3)cc2c1=O	inconclusive: 15.8 µM [activator, single point] and inconclusive: 25.1 µM [activator, partial curve]	–
Cc1ccc(-n2c(Cc3cccs3)nnc2SCc2ccc(Br)cc2)cc1	inconclusive: 25.1 µM [activator, single point]	–
CCCCCC[C@H](CC)CN(C(=O)Oc1ccccc1)c1ccccc1	inactive	–
Cc1c(C(=O)NCC2COc3ccccc3O2)oc2ccc(S(=O)(=O)N(C)C3CCCCC3)cc12 (configuration not stated)	inconclusive: 31.6 µM [activator, partial curve, poor fit]	–
